Experimental data: the antibiotic and cytotoxicity screens of Wong et al. (2023)
The other results are listed elsewhere or left out.

Legend:
HSkMC = human skeletal muscle cells; assay: cytotoxicity call (relative viability < 0.9); details: 10 µM
HepG2 = assay: cytotoxicity call (relative viability < 0.9); details: 10 µM
S. aureus RN4220 = assay: growth inhibition call (relative growth <= 0.2); details: 50 µM

For `COc1ccc(NC(=O)Nc2ccc3c(c2)C(=O)N([C@@H](C)CO)C[C@H](C)[C@H](CN(C)C(=O)NC2CCCCC2)OCCCC[C@@H](C)O3)cc1`, the cytotoxicity call (HSkMC) was “inactive”, the cytotoxicity call (HepG2) was “inactive” and the growth inhibition call (S. aureus RN4220) was “inactive”.
With `COCC(=O)N(C)C[C@H]1Oc2cc(C#CCC3CCCC3)ccc2S(=O)(=O)N([C@H](C)CO)C[C@@H]1C` the cytotoxicity call (HSkMC) was “inactive”, the cytotoxicity call (HepG2) was “inactive” and the growth inhibition call (S. aureus RN4220) was “inactive”.
`C[C@@H]1CN([C@H](C)CO)S(=O)(=O)c2ccc(C#Cc3cccc(F)c3)cc2O[C@H]1CN(C)C(=O)CN1CCOCC1` was tested, and the cytotoxicity call (HSkMC) was “inactive”, the cytotoxicity call (HepG2) was “inactive” and the growth inhibition call (S. aureus RN4220) was “inactive”.
For `Cc1ccc(S(=O)(=O)Nc2ccc3c(c2)C(=O)N([C@@H](C)CO)C[C@@H](C)[C@H](CN(C)C(=O)Nc2cccc4ccccc24)OCCCC[C@H](C)O3)cc1`, the cytotoxicity call (HSkMC) was “inactive”, the cytotoxicity call (HepG2) was “inactive” and the growth inhibition call (S. aureus RN4220) was “inactive”.
`COCC(=O)N1C[C@H](C)[C@@H](OC)CN(C)C(=O)c2cc(NC(=O)Nc3cccc(F)c3)ccc2OC[C@@H]1C` was tested, and the cytotoxicity call (HSkMC) was “inactive”, the cytotoxicity call (HepG2) was “inactive” and the growth inhibition call (S. aureus RN4220) was “inactive”.
With `Cn1cnc(S(=O)(=O)N[C@@H]2C=C[C@@H](CC(=O)N3CCN(c4ccccc4)CC3)O[C@@H]2CO)c1` the cytotoxicity call (HSkMC) was “inactive”, the cytotoxicity call (HepG2) was “inactive” and the growth inhibition call (S. aureus RN4220) was “inactive”.
In the case of `Cc1ccc(S(=O)(=O)N(C)C[C@@H]2Oc3c(NC(=O)Nc4ccc(C(F)(F)F)cc4)cccc3C(=O)N([C@H](C)CO)C[C@@H]2C)cc1`, the cytotoxicity call (HSkMC) is reported as “inactive”, the cytotoxicity call (HepG2) is reported as “inactive” and the growth inhibition call (S. aureus RN4220) is reported as “inactive”.
For `COc1ccc2c3c(n(c2c1)C)[C@@H](CO)N(Cc1ccccc1Cl)C[C@]13CCN(CC1)C(=O)CC1CC1`, the cytotoxicity call (HSkMC) was “inactive”, the cytotoxicity call (HepG2) was “inactive” and the growth inhibition call (S. aureus RN4220) was “inactive”.
With `C[C@@H]1CCCCO[C@@H](CN(C)C(=O)NC2CCCCC2)[C@@H](C)CN([C@H](C)CO)C(=O)c2cc(NC(=O)Nc3ccccc3)ccc2O1` the cytotoxicity call (HSkMC) was “inactive”, the cytotoxicity call (HepG2) was “inactive” and the growth inhibition call (S. aureus RN4220) was “inactive”.
For `COc1ccc(S(=O)(=O)Nc2cccc3c2O[C@H](CN(C)CC2CC2)[C@@H](C)CN([C@H](C)CO)C3=O)cc1`, the cytotoxicity call (HSkMC) was “inactive”, the cytotoxicity call (HepG2) was “inactive” and the growth inhibition call (S. aureus RN4220) was “inactive”.
`CCC(=O)Nc1ccc2c(c1)C(=O)N(C)C[C@@H](OC)[C@@H](C)CN(C(=O)CN1CCOCC1)[C@@H](C)CO2` was tested, and the cytotoxicity call (HSkMC) was “inactive”, the cytotoxicity call (HepG2) was “inactive” and the growth inhibition call (S. aureus RN4220) was “inactive”.
With `CC12CCC(=O)C=C1CCC1C2C(O)CC2(C)C1CCC2(O)C(=O)CO` (stereo not given) the cytotoxicity call (HSkMC) was “inactive”, the cytotoxicity call (HepG2) was “inactive” and the growth inhibition call (S. aureus RN4220) was “inactive”.
With `COc1ccc(NC(=O)N(C)C[C@@H]2Oc3cc(Br)ccc3S(=O)(=O)N([C@H](C)CO)C[C@H]2C)cc1` the cytotoxicity call (HSkMC) was “inactive”, the cytotoxicity call (HepG2) was “inactive” and the growth inhibition call (S. aureus RN4220) was “inactive”.
`Cc1ccc(S(=O)(=O)N(C)C[C@@H]2Oc3c(NS(C)(=O)=O)cccc3C(=O)N([C@H](C)CO)C[C@@H]2C)cc1` was tested, and the cytotoxicity call (HSkMC) was “inactive”, the cytotoxicity call (HepG2) was “inactive” and the growth inhibition call (S. aureus RN4220) was “inactive”.
`Cc1cc(C(=O)Nc2cccc3c2O[C@H](CN(C)S(=O)(=O)c2cn(C)cn2)[C@@H](C)CN([C@@H](C)CO)C3=O)n(C)n1` was tested, and the cytotoxicity call (HSkMC) was “inactive”, the cytotoxicity call (HepG2) was “inactive” and the growth inhibition call (S. aureus RN4220) was “inactive”.
With `C[C@H](CO)N1C[C@H](C)[C@@H](CN(C)Cc2ccc(C(F)(F)F)cc2)OCCCC[C@H](C)Oc2ccc(NS(C)(=O)=O)cc2C1=O` the cytotoxicity call (HSkMC) was “inactive”, the cytotoxicity call (HepG2) was “inactive” and the growth inhibition call (S. aureus RN4220) was “inactive”.
In the case of `C[C@@H]1CN([C@H](C)CO)C(=O)Cc2cc(NC(=O)C3CC3)ccc2O[C@@H]1CN(C)S(=O)(=O)c1cn(C)cn1`, the cytotoxicity call (HSkMC) is reported as “inactive”, the cytotoxicity call (HepG2) is reported as “inactive” and the growth inhibition call (S. aureus RN4220) is reported as “inactive”.
With `C[C@H](C(=O)O)N1C(=O)CCC1=O` the cytotoxicity call (HSkMC) was “inactive”, the cytotoxicity call (HepG2) was “inactive” and the growth inhibition call (S. aureus RN4220) was “inactive”.
In the case of `Cc1noc(C)c1S(=O)(=O)Nc1ccc2c(c1)C(=O)N([C@H](C)CO)C[C@H](C)[C@H](CN(C)Cc1ccccc1)OCCCC[C@H](C)O2`, the cytotoxicity call (HSkMC) is reported as “inactive”, the cytotoxicity call (HepG2) is reported as “inactive” and the growth inhibition call (S. aureus RN4220) is reported as “inactive”.
In the case of `O=C1CSC(=O)N1`, the cytotoxicity call (HSkMC) is reported as “inactive”, the cytotoxicity call (HepG2) is reported as “inactive” and the growth inhibition call (S. aureus RN4220) is reported as “inactive”.
`CCCCCC=CCC=CCC=CCC=CCCCC(=O)O` was tested, and the cytotoxicity call (HSkMC) was “inactive”, the cytotoxicity call (HepG2) was “inactive” and the growth inhibition call (S. aureus RN4220) was “inactive”.
For `COc1ccc(S(=O)(=O)N(C)C[C@H]2Oc3ccc(NS(=O)(=O)c4ccc(F)cc4)cc3C(=O)N([C@@H](C)CO)C[C@@H]2C)cc1`, the cytotoxicity call (HSkMC) was “inactive”, the cytotoxicity call (HepG2) was “inactive” and the growth inhibition call (S. aureus RN4220) was “inactive”.
`COc1ccc(NC(=O)Nc2ccc3c(c2)C(=O)N([C@H](C)CO)C[C@@H](C)[C@H](CN(C)Cc2ccc(C(F)(F)F)cc2)OCCCC[C@@H](C)O3)cc1` was tested, and the cytotoxicity call (HSkMC) was “inactive”, the cytotoxicity call (HepG2) was “active” and the growth inhibition call (S. aureus RN4220) was “inactive”.
For `C[C@@H]1CN([C@H](C)CO)C(=O)c2cc(NC(=O)Nc3ccc(C(F)(F)F)cc3)ccc2O[C@H]1CN(C)Cc1ccc(Cl)c(Cl)c1`, the cytotoxicity call (HSkMC) was “active”, the cytotoxicity call (HepG2) was “active” and the growth inhibition call (S. aureus RN4220) was “inactive”.
`C[C@H](CO)N1C[C@H](C)[C@H](CN(C)S(=O)(=O)c2cn(C)cn2)OCCCC[C@H](C)Oc2ccc(NS(=O)(=O)c3ccc(F)cc3)cc2C1=O` was tested, and the cytotoxicity call (HSkMC) was “inactive”, the cytotoxicity call (HepG2) was “inactive” and the growth inhibition call (S. aureus RN4220) was “inactive”.
